Measured values as given in the RNAGym collection of RNA variant scans (doi:10.7554/elife.90254).
The source gives no read counts; variants with many changes may rest on few reads.

B1: LINE1-mini (parent)
chain: GGCAGAGCUCAACACAGCGUGGCAAAGUGGCUGUGGCUAGACUGCC

Variants of: B1
Assay: self-cleavage, relative activity (ratio to wild type); higher = more cleavage; in vitro, sequencing; the parent is a self-cleaving ribozyme

| Variant | self-cleavage |
| --- | --- |
| A4G C8A A39C | 0.13 |
| C3A U20A G21C U34A G35A | 0.04 |
| G2C C18A G22U | 0.08 |
| G1A U9C A14U U20A G21A C31U C45A | 0.02 |
| C18G U20G G36U | 0.07 |
| C15A A25U U38G | 0.02 |
| G2U C18A A25U G44U | 0.03 |
| C10U A11G C42G | 0 |
| C15A U32C G36C | 0.01 |
| G19A G22U A41U C42A | 0.53 |
| C13U U32C C45G | 0.13 |
| C8G G19A U28G G40A | 0.12 |
| C3A C15G G19U C31A | 0.01 |
| C13G C42A C45A | 0.04 |
| C13G A41U C42A | 0.11 |
| A4G U9A C15U G21U | 0.2 |
| G1C G7U A14C A16U C18A G33U G40U | 0.03 |
| G7C G19A U20G G36U U38C | 0.03 |
| A16C C18U C37G G40C U43A | 0.14 |
| A4C U9C A39G C46A | 0.02 |
| C3G A16G G40C C45A C46A | 0.05 |
| C13A C15G G21U C31U C46U | 0.02 |
| U9A C10G G21U U28G | 0.02 |
| G1U G7A C18A G21U G30U | 0.04 |

| Variant | self-cleavage |
| --- | --- |
| G5U A6G A16U C18G | 0.03 |
| A25C G35U C46A | 0.04 |
| G5A G7C C10A C18G G33U | 0.01 |
| G1C G27U G35A C42A | 0.01 |
| G1U U9C G22A G29U G44U | 0.01 |
| C13G A14C G44A | 0.11 |
| G19C U34A G36A | 0.16 |
| U20C C23G G35A C42A | 0.06 |
| U9C G27C U28A | 0.01 |
| A6C A25C C31A | 0.05 |
| G2U G21U G44C | 0.01 |
| C8G U32A G33U U34A A41U | 0.09 |
| G21A G36A C46A | 0.19 |
| C3G C8A C15G G33A | 0.36 |
| G2U A14C C18U | 0.03 |
| U9C U20G G22U C23U | 0 |
| G2C G21A U32A | 0.04 |
| A6U U20C G30U | 0.12 |
| G2A C8U G19U A24U U28A U43G | 0.05 |
| A12C C18A G19C C23A A39U | 0.02 |
| G2A G33U U38C G40A | 0.12 |
| G5U A14G C37G | 0.17 |
| G2A C18G C37U | 0.1 |
| C3A C13A A24U C42G | 0.06 |

| Variant | self-cleavage |
| --- | --- |
| C18A U20C A25G G29A G30A G44U | 0.01 |
| G7U G22C A26U G30A G35C G40U C45G | 0 |
| G2C C3U C15U A25U U38C | 0.07 |
| C3U C10A G17C G30A | 0.04 |
| C3U G36U G44U | 0.65 |
| C3G A4G G7A | 0.17 |
| G5U A24U U32A | 0.09 |
| U9C C42U C45U | 0 |
| G1C C3G C45A C46A | 0.02 |
| G22U A25G A26C G40C | 0.05 |
| G1A G7A A11G A25U G30C | 0.05 |
| A26C G30A G35U C37G | 0.05 |
| G1U G19A U32A G40U | 0.03 |
| A6G A24U A26U G40C | 0.01 |
| A11C A12U A26U G40C | 0.01 |
| G5C C8A G17U C18G C23G | 0.26 |
| A6U U32C G35U | 0.05 |
| G7U C8A U38A | 0.06 |
| C10A A12C G27U C42G | 0.01 |
| G2A A4G U32C | 0.14 |
| A6G U20G G22A | 0.06 |
| A26U G33A U34C U43A | 0.12 |
| G17A G21U C46G | 0.16 |
| G2U C8A G33U | 0.03 |

| Variant | self-cleavage |
| --- | --- |
| G1A A25G G29C | 2 |
| G27A G35A A39C | 0.02 |
| C13G G22A G36U | 0.07 |
| C18A G19U C23A | 0.65 |
| A16U G17U A39C | 0.02 |
| G1A C13G A26U G33A | 0.07 |
| C3A G30U U32A | 0.17 |
| G7A C10A C18U C23U | 0.02 |
| C3G U9C U38A | 0.02 |
| A4U C8G C15G C23A G27C G33U G36A | 0.03 |
| C13G A24G G40A C42U C45U | 0.02 |
| C15U G30C C46U | 0.08 |
| A4G G5A G7A G19U C42U C46U | 0.11 |
| G33C G35A C46U | 0.02 |
| A14G U20A G44C | 0.36 |
| G1A G7C C8U U43C | 0.29 |
| A12C G22U G30U | 0.02 |
| G2C C8G G19C C31G A39C C46U | 0.08 |
| G29A C37A G40A A41C | 0.06 |
| U9G G21U U28C G33A G36U U43A | 0.01 |
| C15U G19U A25G G35C C42A | 0.01 |
| A4U U9C A24U A26C | 0.03 |
| A24G U38A U43C | 0.03 |
| G2C G21C C23U A26U G33C C42U | 0.02 |

| Variant | self-cleavage |
| --- | --- |
| G5U C13U C15G C23G | 0.06 |
| C10U C15A G17A G27C U28A | 0.07 |
| G2A C3U G5A C15G | 0.15 |
| G27A U32A U38A | 0.03 |
| C8A C23U G33A | 0.03 |
| G7U G33A G40C C45U | 0.08 |
| A16U G29U C31U C42U | 0.05 |
| C18U G30C C46A | 0.19 |
| A4G G7U C10A A39G | 0.01 |
| G7C C8A C15G A16U U20A G40A | 0.03 |
| G1U A4G C18G A25C | 0.02 |
| A26C U34G A39C | 0.14 |
| A4G U34G G35C | 0.16 |
| C3G G19A U43A | 1.36 |
| G5A C10A G29U C42A | 0.02 |
| C8A C10A G35A | 0.05 |
| A11C A14U G17C G33C | 0 |
| G17A G21A U28A C37G U38A | 0.01 |
| A6G A11C G30U G40A C45U | 0.01 |
| A4G C10U C15A G19C G22C | 0.01 |
| U9C G19A A24G G36C U38C | 0 |
| G5C C10G A25G C45A | 0.02 |
| G2U A16U A25G C31A | 0.03 |
| G22A G36U G40C | 0.08 |

| Variant | self-cleavage |
| --- | --- |
| A11C C13G G29U C37G C42A C45A | 0 |
| C3U G17C G30U | 0.08 |
| C3U G29A G40C | 0.1 |
| G1U C8G U9C | 0 |
| C3A C18A G35U C37G | 0.02 |
| C13A A14U C37U | 0.07 |
| U32A U34C A41U | 0.02 |
| G2U C8A C13A A25C G29A G30U C31G | 0.06 |
| G1C G2A C15U C42U | 0.13 |
| C3U U28G C31A | 0.02 |
| C15A G33U G40C | 0.08 |
| G1A G2C C13G | 0.1 |
| C8A A16C A39U | 0.05 |
| G5C C18G G19U | 0.06 |
| A4U C13G C31G | 0.08 |
| G7C C10A A14C G19A U28A | 0.01 |
| G7U G22C U32G | 0.19 |
| A16C C23U U43C | 0.02 |
| G1U A6C C10G C15A U34C | 0.02 |
| G5A U20A A24G | 0.03 |
| G5C C18U G30U | 0.02 |
| C10U C18A G27C U28A | 0.23 |
| G7A A11C G40A | 0.06 |
| C3U A16C G19U G22A U34C | 0.07 |

| Variant | self-cleavage |
| --- | --- |
| A6C C23G G30U G44U | 0.09 |
| A6C G21U G22U | 0.77 |
| G2A C8U C10G | 0.01 |
| G2C C23G C31G | 0.06 |
| C3A A4C U20C | 0.24 |
| C15U U32C C37A | 0.04 |
| C10A A16C C18A U34A | 0.04 |
| G2U C3G G7C C18G G19A U32C | 0.1 |
| G5C C8U G22C C42G | 0.2 |
| A11C A16U C31U G33U | 0.01 |
| A6C G19A C37G | 0.03 |
| A12G C18U C37U | 0.08 |
| A26C G35A G36A | 0.15 |
| G7C C23G U28A G33U | 0.02 |
| G1U A11C G17A C18U | 0 |
| G17U G29U G33U C42U | 0.06 |
| C31U A39C G40A U43G | 0.03 |
| G21U C31U G40U | 0.03 |
| A4G C8A U28A | 0.92 |
| G17C G27U U38G | 0.01 |
| A14G G33C C46A | 0.03 |
| G7C U28C G36C | 0.07 |
| C18G G27A G29C | 0.71 |
